# According to the supplement of paper PMC8728848:
# The list shows a part of the results.
# B1: Tap1 (Sordaria macrospora), Q50IV4 (protein)
# chain: MSHHHHHHHHYTLHLRLINDTSDTLTLVEQTSWWGKNTIWSQVRSTGVHVLSMAASGSSGMLRFQTSKGDFFAVAVGVHNYKRWCDVLVDTADEAPLTKLHPKYYDDKDAKYQALWAQASEFEAKSKSGKTVRIKFYQADGNVLRATVEYL
# Columns and labels:
# Assay in all cases: glycan array binding signal (z-score within array); higher = stronger binding
# Conditions in all cases: glycan notation: IUPAC condensed, linker removed
# [1] = biological target: Fuc(a1-2)Gal(b1-4)[Fuc(a1-3)]GlcNAc(b1-2)[Fuc(a1-2)Gal(b1-4)[Fuc(a1-3)]GlcNAc(b1-4)]Man(a1-3)[Fuc(a1-2)Gal(b1-4)[Fuc(a1-3)]GlcNAc(b1-2)Man(a1-6)]Man(b1-4)GlcNAc(b1-4)GlcNAc
# How it was run: (§1)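 Columns mapping to the same glycan were averaged after glycan names were converted to IUPAC-condensed notation. The data come from 3228 arrays in the Consortium for Functional Glycomics database, limited to those with an available protein sequence. Binding is reported as a within-array Z-score averaged across arrays of one protein sequence and across linkers.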
# [2] = biological target: Fuc(a1-2)Gal(b1-4)[Fuc(a1-3)]GlcNAc(b1-3)Gal(b1-4)[Fuc(a1-3)]GlcNAc
# How it was run: as §1
# [3] = biological target: Fuc(a1-2)Gal(b1-4)[Fuc(a1-3)]GlcNAc(b1-3)Gal(b1-4)[Fuc(a1-3)]GlcNAc(b1-3)Gal(b1-4)[Fuc(a1-3)]GlcNAc
# How it was run: as §1
# [4] = biological target: Fuc(a1-2)Gal(b1-4)[Fuc(a1-3)]GlcNAc(b1-3)GalNAc
# How it was run: as §1
# Fuc(a1-2)Gal6S(b1-4)Glc = biological target: Fuc(a1-2)Gal6S(b1-4)Glc
# How it was run: as §1
# [5] = biological target: Fuc(a1-2)Gal6S(b1-4)Glc6S
# How it was run: as §1
# [6] = biological target: Fuc(a1-2)Gal6S(b1-4)GlcNAc
# How it was run: as §1
# Fuc(a1-2)[Gal(a1-3)]Gal = biological target: Fuc(a1-2)[Gal(a1-3)]Gal
# How it was run: as §1
# [7] = biological target: Fuc(a1-2)[Gal(a1-3)]Gal(b1-3)GlcNAc
# How it was run: as §1
# [8] = biological target: Fuc(a1-2)[Gal(a1-3)]Gal(b1-3)GlcNAc(b1-2)Man(a1-3)[Fuc(a1-2)[Gal(a1-3)]Gal(b1-3)GlcNAc(b1-2)Man(a1-6)]Man(b1-4)GlcNAc(b1-4)GlcNAc
# How it was run: as §1
# [9] = biological target: Fuc(a1-2)[Gal(a1-3)]Gal(b1-3)GlcNAc(b1-3)GalNAc
# How it was run: as §1
# [10] = biological target: Fuc(a1-2)[Gal(a1-3)]Gal(b1-4)Glc
# How it was run: as §1
# [11] = biological target: Fuc(a1-2)[Gal(a1-3)]Gal(b1-4)GlcNAc
# How it was run: as §1
# [12] = biological target: Fuc(a1-2)[Gal(a1-3)]Gal(b1-4)GlcNAc(b1-2)Man(a1-3)[Fuc(a1-2)[Gal(a1-3)]Gal(b1-4)GlcNAc(b1-2)Man(a1-6)]Man(b1-4)GlcNAc(b1-4)GlcNAc
# How it was run: as §1
# [13] = biological target: Fuc(a1-2)[Gal(a1-3)]Gal(b1-4)GlcNAc(b1-2)Man(a1-3)[Fuc(a1-2)[Gal(a1-3)]Gal(b1-4)GlcNAc(b1-2)Man(a1-6)]Man(b1-4)GlcNAc(b1-4)[Fuc(a1-6)]GlcNAc
# How it was run: as §1
# [14] = biological target: Fuc(a1-2)[Gal(a1-3)]Gal(b1-4)GlcNAc(b1-3)GalNAc
# How it was run: as §1
# [15] = biological target: Fuc(a1-2)[Gal(a1-3)]Gal(b1-4)[Fuc(a1-3)]Glc
# How it was run: as §1
# [16] = biological target: Fuc(a1-2)[Gal(a1-3)]Gal(b1-4)[Fuc(a1-3)]GlcNAc
# How it was run: as §1
# [17] = biological target: Fuc(a1-2)[Gal(a1-3)]Gal(b1-4)[Fuc(a1-3)]GlcNAc(b1-3)GalNAc
# How it was run: as §1
# [18] = biological target: Fuc(a1-2)[Gal(a1-4)]Gal(b1-4)GlcNAc
# How it was run: as §1
# [19] = biological target: Fuc(a1-2)[GalNAc(a1-3)]Gal
# How it was run: as §1
# [20] = biological target: Fuc(a1-2)[GalNAc(a1-3)]Gal(b1-3)GalNAc(a1-3)[Fuc(a1-2)]Gal(b1-4)GlcNAc
# How it was run: as §1
# [21] = biological target: Fuc(a1-2)[GalNAc(a1-3)]Gal(b1-3)GlcNAc
# How it was run: as §1
# [22] = biological target: Fuc(a1-2)[GalNAc(a1-3)]Gal(b1-3)GlcNAc(b1-2)Man(a1-3)[Fuc(a1-2)[GalNAc(a1-3)]Gal(b1-3)GlcNAc(b1-2)Man(a1-6)]Man(b1-4)GlcNAc(b1-4)GlcNAc
# How it was run: as §1
# [23] = biological target: Fuc(a1-2)[GalNAc(a1-3)]Gal(b1-3)GlcNAc(b1-3)GalNAc
# How it was run: as §1
# [24] = biological target: Fuc(a1-2)[GalNAc(a1-3)]Gal(b1-4)Glc
# How it was run: as §1
# [25] = biological target: Fuc(a1-2)[GalNAc(a1-3)]Gal(b1-4)GlcNAc
# How it was run: as §1
# [26] = biological target: Fuc(a1-2)[GalNAc(a1-3)]Gal(b1-4)GlcNAc(b1-2)Man(a1-3)[Fuc(a1-2)[GalNAc(a1-3)]Gal(b1-4)GlcNAc(b1-2)Man(a1-6)]Man(b1-4)GlcNAc(b1-4)GlcNAc
# How it was run: as §1
# [27] = biological target: Fuc(a1-2)[GalNAc(a1-3)]Gal(b1-4)GlcNAc(b1-3)Gal(b1-4)GlcNAc
# How it was run: as §1
# [28] = biological target: Fuc(a1-2)[GalNAc(a1-3)]Gal(b1-4)GlcNAc(b1-3)Gal(b1-4)GlcNAc(b1-3)Gal(b1-4)GlcNAc
# How it was run: as §1
# [29] = biological target: Fuc(a1-2)[GalNAc(a1-3)]Gal(b1-4)GlcNAc(b1-3)GalNAc
# How it was run: as §1
# [30] = biological target: Fuc(a1-2)[GalNAc(a1-3)]Gal(b1-4)[Fuc(a1-3)]GlcNAc
# How it was run: as §1
# [31] = biological target: Fuc(a1-2)[GalNAc(a1-3)]Gal(b1-4)[Fuc(a1-3)]GlcNAc(b1-3)GalNAc
# How it was run: as §1
# [32] = biological target: Fuc(a1-2)[GalNAc(a1-4)]Gal(b1-4)GlcNAc
# How it was run: as §1
# [33] = biological target: Fuc(a1-2)[GalNAc(b1-3)]Gal
# How it was run: as §1
# Fuc(a1-3)GlcNAc = biological target: Fuc(a1-3)GlcNAc
# How it was run: as §1
# [34] = biological target: Fuc(a1-3)[Gal(b1-4)]Glc6S
# How it was run: as §1
# [35] = biological target: Fuc(a1-3)[Gal(b1-4)]GlcNAc
# How it was run: as §1
# [36] = biological target: Fuc(a1-3)[Gal(b1-4)]GlcNAc(b1-2)Man(a1-3)[Fuc(a1-3)[Gal(b1-4)]GlcNAc(b1-2)Man(a1-6)]Man(b1-4)GlcNAc(b1-4)GlcNAc
# How it was run: as §1
# [37] = biological target: Fuc(a1-3)[Gal(b1-4)]GlcNAc(b1-2)Man(a1-3)[Fuc(a1-3)[Gal(b1-4)]GlcNAc(b1-2)Man(a1-6)]Man(b1-4)GlcNAc(b1-4)[Fuc(a1-6)]GlcNAc
# How it was run: as §1
# [38] = biological target: Fuc(a1-3)[Gal(b1-4)]GlcNAc(b1-3)Gal(b1-3)[Fuc(a1-4)]GlcNAc
# How it was run: as §1
# [39] = biological target: Fuc(a1-3)[Gal(b1-4)]GlcNAc(b1-3)GalNAc
# How it was run: as §1
# [40] = biological target: Fuc(a1-3)[Gal(b1-4)]GlcNAc(b1-4)Gal(b1-4)[Fuc(a1-3)]GlcNAc
# How it was run: as §1
# [41] = biological target: Fuc(a1-3)[Gal(b1-4)]GlcNAc(b1-4)Gal(b1-4)[Fuc(a1-3)]GlcNAc(b1-4)Gal(b1-4)[Fuc(a1-3)]GlcNAc
# How it was run: as §1
# [42] = biological target: Fuc(a1-3)[Gal(b1-4)]GlcNAc(b1-6)[Gal(b1-3)GlcNAc(b1-3)]Gal(b1-4)Glc
# How it was run: as §1
binder,measurement,setting,value
B1,glycan array binding signal (z-score),[1],-0.112
same,glycan array binding signal (z-score),[2],-0.232
same,glycan array binding signal (z-score),[3],-0.238
same,glycan array binding signal (z-score),[4],-0.028
same,glycan array binding signal (z-score),Fuc(a1-2)Gal6S(b1-4)Glc,-0.234
same,glycan array binding signal (z-score),[5],-0.192
same,glycan array binding signal (z-score),[6],-0.222
same,glycan array binding signal (z-score),Fuc(a1-2)[Gal(a1-3)]Gal,-0.241
same,glycan array binding signal (z-score),[7],-0.215
same,glycan array binding signal (z-score),[8],-0.231
same,glycan array binding signal (z-score),[9],-0.19
same,glycan array binding signal (z-score),[10],-0.234
same,glycan array binding signal (z-score),[11],-0.22
same,glycan array binding signal (z-score),[12],-0.244
same,glycan array binding signal (z-score),[13],-0.228
same,glycan array binding signal (z-score),[14],-0.137
same,glycan array binding signal (z-score),[15],-0.24
same,glycan array binding signal (z-score),[16],-0.147
same,glycan array binding signal (z-score),[17],-0.149
same,glycan array binding signal (z-score),[18],-0.242
same,glycan array binding signal (z-score),[19],-0.246
same,glycan array binding signal (z-score),[20],-0.246
same,glycan array binding signal (z-score),[21],-0.247
same,glycan array binding signal (z-score),[22],-0.23
same,glycan array binding signal (z-score),[23],-0.091
same,glycan array binding signal (z-score),[24],-0.238
same,glycan array binding signal (z-score),[25],-0.236
same,glycan array binding signal (z-score),[26],-0.117
same,glycan array binding signal (z-score),[27],-0.251
same,glycan array binding signal (z-score),[28],-0.216
same,glycan array binding signal (z-score),[29],-0.212
same,glycan array binding signal (z-score),[30],-0.098
same,glycan array binding signal (z-score),[31],-0.082
same,glycan array binding signal (z-score),[32],-0.231
same,glycan array binding signal (z-score),[33],-0.228
same,glycan array binding signal (z-score),Fuc(a1-3)GlcNAc,-0.209
same,glycan array binding signal (z-score),[34],-0.162
same,glycan array binding signal (z-score),[35],-0.243
same,glycan array binding signal (z-score),[36],-0.225
same,glycan array binding signal (z-score),[37],-0.189
same,glycan array binding signal (z-score),[38],-0.232
same,glycan array binding signal (z-score),[39],-0.177
same,glycan array binding signal (z-score),[40],-0.208
same,glycan array binding signal (z-score),[41],-0.239
same,glycan array binding signal (z-score),[42],-0.235
